The source of these data is ChEMBL document CHEMBL1201862, “PubChem BioAssay data set” (2004).

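In this assay, cells in 96-well plates receive the compound at five concentrations for 48 hours. Endpoints are linearly interpolated between the surrounding concentrations. The concentration for 50% growth inhibition is given as GI50.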 The source made the active and inactive calls. Cut-off read from the data, not from the text of the source: active = GI50 up to about 1.1 µM and inactive = higher. A value given as a limit tells only on which side of the number the result lay.

For this test, the system named is NCI-H322M. Nature of the test: NCI-60 cell line screen, 48 h.
For `c1ccc(/N=C2\SC(=NNc3ccccc3)S\C2=N/c2ccccc2)cc1`, the GI50 is inactive: > 100 µM.
In the case of `CC(=O)CSCc1ccccn1` it was inactive: > 100 µM; in that of `COc1ccc(-c2cc(O)c3cc4c(cc3n2)OCO4)c(OC)c1`, inactive: 60.8 µM; in that of `N#CCc1nc(O)c2ccccc2n1`, inactive: > 100 µM.
In the case of `CCCCc1ccc(-n2sc3ncccc3c2=O)cc1` it was inactive: 19.5 µM; in that of `COc1ccc(-c2csc(Cc3nc4ccccc4c(=O)n3-c3ccc(Cl)cc3)n2)cc1`, inactive: 20.5 µM.
Under `COc1ccc(C2=C(Cl)C(=O)N(c3ccc(OC)cc3OC)C(=O)C2(Cl)Cl)cc1` stands inactive: 19.3 µM; under `C=CCc1cc(OC)c2c(c1)C(O)CC(c1ccccc1)O2` (stereo unspecified), inactive: > 100 µM.
As for `CCn1nc(C)c2c1C(=O)NCC(=O)N2`, the GI50 is inactive: > 100 µM.
In the case of `CCNC(=O)C#CC(=O)NCC` it was inactive: > 10 µM.
In the case of `O=C1Oc2ccccc2C(=O)/C1=C/NC(=S)NCc1ccccc1` it was inactive: 73.3 µM; in that of `COc1cc(C2C(Cl)C(=O)N2n2cnc3ccccc3c2=O)cc(OC)c1OC` (stereo unspecified), inactive: > 100 µM.
For the molecule `COn1cc(CO)c2ccccc21`, the GI50 is inactive: > 86.7 µM.
As for `C/C(=N\N)C(CN(C)C)C(c1ccccc1)c1c(O)c2ccccc2oc1=O` (stereo unspecified), the GI50 was inactive: > 100 µM.
In the case of `Nc1nc(N)c2ncn(-c3ccc(Cl)c(Cl)c3)c2n1` it was inactive: 29.6 µM; in that of `CN(C)CCCCN1c2ccccc2Sc2cc(N=[N+]=[N-])ccc21`, inactive: 2.61 µM; in that of `O=C(O)C1Cc2[nH]c3ccccc3c2C2CCCC12` (stereo unspecified), inactive: > 100 µM.
In the case of `COc1ccc(O)cc1C(O)c1ccccc1` (stereo unspecified) it was inactive: > 100 µM; in that of `CC(C)C(N)C(=O)NC(CCC(=O)NCCCCC(N)C(=O)NCCCNc1ccc([N+](=O)[O-])c2[nH]c3ccccc3c(=O)c12)C(N)=O` (stereo unspecified), inactive: 63.2 µM; in that of `Cc1ccc(S(=O)(=O)n2c3c(c4ccccc42)CCN2C[C@H]([C@H](C)Br)CC[C@@H]32)cc1`, inactive: > 100 µM.
Regarding `CCCCCCCC(=O)N1C2CC3CCC2(CS1(=O)=O)C3(C)C` (stereo unspecified), the GI50 is inactive: > 10 µM.
As to `O=C(O)CCc1coc2ccc(O)cc12`, the GI50 is inactive: > 100 µM.
In the case of `C[N+](C)(C)CC(=O)N/N=C(/CC(=O)CC(C1=C(O)c2ccccc2OC1)c1ccccc1)C(=O)Nc1cccc(Cl)c1` (stereo unspecified) it was inactive: > 100 µM.
As to `CN1CCC2(CC1)SSC1(CCN(C)CC1)S2`, the GI50 was inactive: > 100 µM.
For the molecule `COCCn1cnc2c(Cl)nc(Nc3ccccc3)nc21`, the GI50 is inactive: 29.2 µM.
Consider `C=CCOC(=O)N1c2ccc(O)cc2[C@@]23O[C@@]24[C@@H]1C#C/C=C\C#C[C@]3(O)C(=O)C[C@@H]4C`, for which the GI50 was inactive: > 100 µM.
As to `Cc1c(Cl)c(=O)oc2cc(OCC(=O)c3ccccc3)ccc12`, the GI50 is inactive: > 100 µM.
In the case of `COC(=O)C1(Cc2ccc3c(c2)CCC3)Cc2cc3c(cc2C1)CCC3` it was inactive: > 100 µM; in that of `COc1cc2c(c(OC)c1OC)-c1ccc(SC)cc1C(O)CC2` (stereo unspecified), inactive: 41.5 µM; in that of `CC1=NN2C(c3ccc([N+](=O)[O-])cc3)=CSC2=NC(C)(C)C1`, inactive: > 100 µM.
Regarding `O=C(CCCCCCCCCCc1ccccc1)C1=C(O)CCCC1=O`, the GI50 was inactive: 40.7 µM.
As for `O=C1C=Cc2ncccc2C1=O`, the GI50 was inactive: 25.2 µM.
In the case of `COc1c(O)c(O)cc2c1-c1ccc(OC)c(=O)cc1C(NC(C)=O)CC2` (stereo unspecified) it was inactive: 4.92 µM.
Consider `CN(C)CC1CCC/C(=C\c2ccccc2)C1=O` (stereo unspecified), for which the GI50 is inactive: 18 µM.
`CCOC(=O)C1=CC(C)(C(=O)OCC)Nc2c(nc(N)[nH]c2=O)N1` (stereo unspecified): the GI50 was inactive: > 10 µM.
In the case of `Oc1cccc2nc3cc(CN4CCOCC4)c(CN4CCOCC4)cc3nc12` it was inactive: 83.4 µM; in that of `COc1ccc(C2SCC(=O)N2NC(=O)c2ccc(NC(C)=O)cc2)cc1` (stereo unspecified), inactive: > 100 µM; in that of `O=[N+]([O-])/C=C/c1cn(CCCCCCCCn2cc(/C=C/[N+](=O)[O-])c3ccccc32)c2ccccc12`, inactive: > 10 µM.
Consider `CC(C)=CCC\C(C)=C/C=C/C(C)=C\C=C\C(C)=C/C=C/C=C(C)\C=C\C=C(C)/C=C/C=C(/C)CCC=C(C)C`, for which the GI50 was inactive: > 100 µM.
Under `CSc1ncnc2c1cnn2CCCCO` stands inactive: > 100 µM; under `CCN(CC)CCNc1ccc2ncn3c4ccc(OC)cc4c(=O)c1c23`, inactive: 2.14 µM.
In the case of `COc1ccc(-n2c(SC(CN3CCOCC3)CN3CCCC3=O)nc3ccccc3c2=O)cc1` (stereo unspecified) it was inactive: > 100 µM; in that of `Cc1ccc(NP(=O)(Oc2ccccc2)N(CCCl)CCCl)cc1` (stereo unspecified), inactive: > 100 µM.
Under `CCCCCC(/C=N/NC(N)=S)C(O)(C(F)(F)F)C(F)(F)F` (stereo unspecified) stands inactive: > 10 µM; under `CN(C)c1ccc(/C=N/NC(=O)c2cnc3ccccc3c2)cc1`, inactive: > 100 µM; under `Cc1ccc(C)c(N2C(=O)C(=O)c3c(C)ccc(C)c32)c1`, inactive: 28.4 µM.
As for `c1ccc2c(c1)c1ccccc1c1n[se]nc21`, the GI50 was inactive: 81.7 µM.
In the case of `COc1cc(C(C)c2cc3c(cc2OCCCCCOc2cc4c(cc2C(C)c2cc(OC)c(OC)c(OC)c2)OCO4)OCO3)cc(OC)c1OC` (stereo unspecified) it was inactive: > 100 µM.
For the molecule `CC1(C)C=Cc2c(cc3oc4ccc5c(c4c(=O)c3c2O)C=CC(C)(C)O5)O1`, the GI50 was inactive: > 100 µM.
Take `O=C(/C(=C/c1cccs1)c1ccccc1)c1ccccc1`: the GI50 is inactive: > 100 µM.
Under `COc1ccc(C(=O)N=C2N(c3ccccc3)C(=N/c3ccccc3)/C(=N\c3ccccc3)N2c2ccccc2)cc1` stands inactive: > 100 µM; under `COC(=O)C12C3C4C5(C(=O)OC)C(C1C35C(=O)N(C(C)C)C(C)C)C42C(=O)N(C(C)C)C(C)C` (stereo unspecified), inactive: > 50 µM.
In the case of `O=C(O)CCCCCO` it was inactive: > 100 µM.
Under `Cc1ccc(C(=O)C(C)N)cc1C` (stereo unspecified) stands inactive: > 100 µM; under `CC(NC(=O)OCc1ccccc1)NC(=O)C(CC(=O)OC(C)(C)C)NC(=O)OC(C)(C)C` (stereo unspecified), inactive: > 100 µM; under `COc1ccc(OC)c2c1C1CCC(=O)N1CN2C(C)=O` (stereo unspecified), inactive: > 100 µM.
`NC(=O)c1c(NC=O)ncn1C1OCC(O)C(O)C1O` (stereo unspecified): the GI50 was inactive: > 100 µM.
Under `CC1OC(OC2C(O[C@@H]3C[C@@H]4CC[C@@H]5[C@H](CC[C@]6(C)C7C(C[C@@H]56)O[C@]5(CC[C@@H](C)CO5)[C@H]7C)[C@@]4(C)C[C@H]3O)OC(CO)C(O)C2O)C(O)C(O)C1O` (stereo partly specified) stands inactive: 1.75 µM; under `O=c1[nH]c2ccccc2c(=O)n1/N=C\c1ccccc1O`, inactive: > 100 µM.
In the case of `NC(=S)N/N=C\CC(O)(C(F)(F)F)C(F)(F)F` it was inactive: > 10 µM; in that of `Nc1nc2cc(CNc3ccc(C(=O)O)cc3)ccc2nc1-c1ccccc1`, inactive: > 100 µM.
Take `COC(=O)C1CCC(=O)N1C(c1ccc2c(c1)OCO2)c1cc(OC)c(OC)c(OC)c1` (stereo unspecified): the GI50 was inactive: > 100 µM.
Take `CCOC(=O)/C=C(/C(=O)OCC)n1ccc(=O)[nH]c1=O`: the GI50 is inactive: 17.5 µM.
With `CC1=NNC(=O)C1C1CC(c2c[nH]c3ccccc23)=NN=C1Cl` (stereo unspecified), the GI50 is inactive: > 100 µM.
Under `CC(C)(C)n1c(=O)n(-c2ccccc2)n(C(C)(C)C)c1=O` stands inactive: > 100 µM; under `Cc1ccc(OCC2OC(n3cnc4nc(N)nc(Cl)c43)CC2Oc2ccc(C)cc2)cc1` (stereo unspecified), inactive: 19.1 µM.
In the case of `C/C=C/C=C/C=C/C=C/C(=O)O` it was inactive: > 100 µM; in that of `COc1ccc(CC2(O)C3CC4CCC2C4C3)cc1` (stereo unspecified), inactive: > 100 µM; in that of `CCC12C=CCN3CCC4(c5cc(C(c6ccc(OC)cc6)C6Cc7ccccc7N6)c(OC)cc5N(C)C4C(O)(C(=O)OC)C1O)C32` (stereo unspecified), inactive: 30.8 µM.
Under `Cc1sc2c(c1C)/C(=N\O)c1cccn1-2` stands inactive: 48 µM; under `CSC1=N/C(=C\c2ccccc2)C(=O)N1CN1CCOCC1`, inactive: > 100 µM.
On to `O=C(NC/C(Cl)=C/Cl)Nc1c2ccccc2nc2ccccc12`, for which the GI50 was inactive: > 100 µM.
For `CC(C)(C)c1cc2ccc(C(N)=O)cc2c(=O)[nH]1`, the GI50 was inactive: > 100 µM.
Under `O=C(OC1C#CCSCC#C/C=C\1)c1cnc2ccccc2n1` (stereo unspecified) stands inactive: > 100 µM; under `O=S(=O)(SCCCCSS(=O)(=O)c1ccc(Cl)cc1)c1ccc(Cl)cc1`, inactive: 14.9 µM; under `CCOP(=O)(OCC)C(Cc1ccc(Cl)cc1)NS(=O)(=O)c1ccc(C)cc1` (stereo unspecified), inactive: > 100 µM.
In the case of `[O-][S+](Nc1ccccc1)c1ccccc1Oc1ccccc1` (stereo unspecified) it was inactive: 21.7 µM; in that of `C=C(C)CC1(O)C(=O)C(OCC)=C1OCC` (stereo unspecified), inactive: > 100 µM.
As for `Nc1ncnc2c1nc(Cl)n2C1OC2COP(=O)(O)OC2C1O` (stereo unspecified), the GI50 is inactive: > 28.5 µM.
Regarding `FC(F)(F)c1ccc(/N=N/N2CCCC2)cc1`, the GI50 is inactive: > 100 µM.
In the case of `CC(CC(C)[C@H]1CCC2[C@H]3C(CC[C@@]21C)[C@@]1(C)CCC(O)C[C@H]1C[C@@H]3O)C(=O)O` (stereo partly specified), the GI50 was inactive: > 100 µM.
In the case of `CC(=O)OC1C(C)OC(OC2C[C@](O)(C(C)=O)Cc3c(O)c4c(c(O)c32)C(=O)c2ccccc2C4=O)C(F)C1OC(C)=O` (stereo partly specified) it was active: 0.0798 µM; in that of `COC(=O)C1CCC[C@H]2C(CO)=C(C)C(=O)[C@@H]12` (stereo partly specified), inactive: > 100 µM; in that of `OCC1CCC(n2cnc3c(O)ncnc32)O1` (stereo unspecified), inactive: > 100 µM.
For `O=C(O)C1CCCCC1c1c2ccc(=O)c(O)c-2oc2c(O)c(O)ccc12` (stereo unspecified), the GI50 was inactive: 67 µM.
For `Nc1ccc(N)c2c1C(=O)c1ccccc1C2=O`, the GI50 is inactive: 16.3 µM.
